The chains are these.
B1: CPEB3 Ribozyme (parent)
chain: UAACAGGGGGCCACAGCAGAAGCGUUCACGUCGCAGCCCCUGUCAGAUUCUGGUGAAUCUGCGAAUUCUGCUGUAUAUCUC

Read counts are not given, so values of variants with three or more changes are uncertain.

The series covers variants of B1. Kind of series: self-cleavage, relative activity (ratio to wild type); higher = more cleavage; in vitro, sequencing. The procedure, abridged:
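Barcoded CPEB3 ribozyme mutants, produced by rounds of error-prone PCR, self-cleaved while being transcribed with T7 RNA polymerase for 5 hours at 37°C and during a subsequent 15 min DNase I step before EDTA was added. Sequencing of template-switched cDNA on Illumina gave cleaved and total reads, and DNA sequencing assigned barcodes to variants. Each variant's relative activity is its cleaved/total read fraction divided by the unmutated ribozyme's fraction, averaged across three batches. A variant needed a minimum of 5 reads.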
UAACAGGGGGCCACAGCAGAGGCGUACGUGUCGCAGCCCCUGUCAGAUUCUGGUGAAUCUGCGGAUUCUGCCGUAUAUCUC [A21G U26A A28G C29U A64G U72C]: the self-cleavage was determined as 0.07.
Under UAACAGGGGGCCACAGCAGAGGCGCUCACGUUGCAGCCCCUGUCAGAUUCUGGUGAAUCUGCCAAUUCUGCUGUAUAUCUC [A21G U25C C32U G63C] stands 0.07.
Consider UAACAGGGGGCCACAGCAGAGGCGCUCACGUCGCAGCCCCUGUCAGAUUCUGGAGAAUCUGCGAAUUCUGCUGUAUCUCUC [A21G U25C U54A A77C], for which the self-cleavage turned out to be 0.23.
Under UAACAGGGGGCCACAGCAGAGGCGCUCACGUCGCAGCCCCUGUCAGAUUCUGGUGAAUCAGCGGAUUCUGCUGUAUAUCUC [A21G U25C U60A A64G] stands 0.13; under UAACAGGGGGCCACAGCAGAGGCGCUCACGUCGCAGCCCGAGUCAGAUUCUGGUGAAUCUGCGAAUUCUGCCGUAUGUCUC [A21G U25C C40G U41A U72C A77G], 0.25.
The same measure for UAACAGGGGGCCACAGCAGAGGCGCUCACGACGCAGCCCCCGUCAGAUUCUGGUAAAUCUGCGAAUUCUGCAGUAUAUCUC [A21G U25C U31A U41C G55A U72A]: 0.12.
Under UAACAGGGGGCCACAGCAGAGGCGCUCACGUCGCAGCCCCUGUCAGAUUCUGGUGAAUCUGCGAAUUCUGCUGUUUAUCUC [A21G U25C A75U] stands 0.37; under UAACAGGGGGCCACAGCAGAGGCGCUCACGUCGCAGCCCCUGCCAGAUUCUGGUGAAUCUGCGAAUUCUGCUGUAUAUCCC [A21G U25C U43C U80C], 0.47.
Take UAACAGGGGGCCACAGCAGAGGCGUACACGGCGCAGCCCCAGUCAGAUUCUGGUGAAUCUGCGAAUUCUGCUGUAUAUCUC [A21G U26A U31G U41A]: the self-cleavage was 0.33.
Under UAACAGGGGGCCACAGCAGAGGCGUACACGUCGCAGCCCCUGACAGAUCCUGGUGAAUCUGCGAAUUCUGCUGUAUAUCUC [A21G U26A U43A U49C] stands 0.1; under UAACAGGGGGCCACAGCAGAGGCGUACACGUCGCAGCCCCUGUCAGUUCCUGGUGAAUCUGCGAAUUCUGCUGUGUAUCUC [A21G U26A A47U U49C A75G], 0.17; under UAACAGGGGGCCACAGCAGAGGCGUACACGUCGCAGCCCCUGUCAGAUUCUGGUGAAUCAGCGAAUUCUGCUGUAUAUCCC [A21G U26A U60A U80C], 0.2.
As for UAACAGGGGGCCACAGCAGAGGCGCUCACGUCGCAGCCCCUGUCAGAUUCAGGUGAGUCUGCGAAUUCCGCUGUAUACCUC [A21G U25C U51A A57G U69C U78C], the self-cleavage came to 0.11.
Under UAACAGGGGGCCACAGCAGAGGCGUACACGUCGCUGCCCCUGUCAGAUUCUGGUGAAUCUGCGAAUUCUGCUGUAUAUCUC [A21G U26A A35U] stands 0.31.
Under UAACAGGGGGCCACAGCAGAGGCGCUCACGUCGCAGCCCCUGUCAGAUUCAGGUGAAUCCGCGAAUUCUGCUGUAUAUCUC [A21G U25C U51A U60C] stands 0.06; under UAACAGGGGGCCACAGCAGAGGCGCCCACGUCGCAGCCCCUGUCAGAUCCUGGUGAAUCUGCGGAUUCUGCCGUAUAUCUC [A21G U25C U26C U49C A64G U72C], 0.24; under UAACAGGGGGCCACAGCAGAGGCGCUCACGUCGCAGCCCCUGCCAGAUUCUGGUGAAUCUGCGUAUUCUGCUGUAUACCUC [A21G U25C U43C A64U U78C], 0.05.
UAACAGGGGGCCACAGCAGAGGCGUACACGUCGCAGCCCCUGUCAGAUUCUGGUGAAUCCGCGAACUCUGCAGUAUAUCAC [A21G U26A U60C U66C U72A U80A]: the self-cleavage is 0.27.
With UAACAGGGGGCCACAGCAGAGGCGCCCACGUCGCAGCCCCUGUCGGAUUCUGGUGAAUCUGCGAAUUCUGCUGUAUAUCUC [A21G U25C U26C A45G], the self-cleavage was found to be 0.33.
The same measure for UAACAGGGGGCCACAGCAGAGGCGUACACGUCGCAGCCCCUGUCAGACUCUGGUGAAUCUGCUAAUUCUGCUGUAUAUCUC [A21G U26A U48C G63U]: 0.08; for UAACAGGGGGCCACAGCAGAGGCGGUCACGUCGCAGCCGCUGUCAGAUUCUGGUGAAUCUGCGAAAUCUGCUGUAUAUCUC [A21G U25G C39G U66A]: 0.25.
The same measure for UAACAGGGGGCCACAGCAGAGGCGCUCACGUCGCAGCCCCUGUCAGAUUCUGGUGAAUCUGCGAAUUCCGCUGUAUCCCUC [A21G U25C U69C A77C U78C]: 0.08; for UAACAGGGGGCCACAGCAGAGGCGCUCACGUCGCAGCCCCUGUCAGAUUCUGGUGAAGCUGGGAAUUCCGCUGUAUAUCUC [A21G U25C U58G C62G U69C]: 0.06.
Under UAACAGGGGGCCACAGCAGAGGCGCUCAGGUCGCAGCCCCUGUCAGAUUCUGGUGAAUCUGCGAAUUCUGCUGUAUAUCUC [A21G U25C C29G] stands 0.06; under UAACAGGGGGCCACAGCAGAGGCGUACACGUCGCAGCCCCUGUUAGGUUCUGGUGAAUCUGCGAAUUCUGCUGUAUAUCUC [A21G U26A C44U A47G], 0.15; under UAACAGGGGGCCACAGCAGAGGCGCUCACGUCGCAGCCCCUGACAGAUUCUGGUGAAUCUGCGGAUUCUGCUGUACAUCUC [A21G U25C U43A A64G U76C], 0.16.
In the case of UAACAGGGGGCCACAGCAGAGGCGCUCACGUCGCAGCCCCUGCCAGAUUCUAGUGAAUCUGCGUAUUCUGCUGUAUAACUC [A21G U25C U43C G52A A64U U78A], the self-cleavage stood at 0.08.
The same measure for UAACAGGGGGCCACAGCAGAGGCGUACACGACGCUGCCCCUGUCAGAUUCUGGUGAAUCUGAGAAUUCUGCUGUAUAACUC [A21G U26A U31A A35U C62A U78A]: 0.1; for UAACAGGGGGCCACAGCAGAGGCGCUCACGUCGCAGCCCCUGUCAGAUUCUGGUGAAUCUGCGAUUUCUGCCGUAUACCUC [A21G U25C A65U U72C U78C]: 0.06; for UAACAGGGGGCCACAGCAGAGGCGCUCACGUCGCAGCCCCAGUCAGAUUCGGGUGAAUCUGCGAAUUCUGCUGUAUAUCUC [A21G U25C U41A U51G]: 0.19.
Under UAACAGGGGGCCACAGCAGAGGCGCUCACGUCGCAGCCCCUGUCAGAUUCUGGUGAACCUGCGGAUUCUGCUGUAUAUCUC [A21G U25C U58C A64G] stands 0.36; under UAACAGGGGGCCACAGCAGAGGCGCUCACGUCGCAGCCCCCGUCAGACUCUGGUGAAUCUGCGAAUCCUGCCGUAUAUCUC [A21G U25C U41C U48C U67C U72C], 0.25; under UAACAGGGGGCCACAGCAGAGGCGCUCACGUCGCAGCCCCUGCCAGAUUCUGGUGAAUCUGCGAAUUCUGCUGUAUAUCUC [A21G U25C U43C], 0.04.
In the case of UAACAGGGGGCCACAGCAGAGGCGCUCACGUCGCAGCCCCUGUCAGAUUCCGGUGAAUCUGCGGAUUCUGCUGUAUAUCCC [A21G U25C U51C A64G U80C], the self-cleavage was determined as 0.07.

The values are drawn from the RNAGym collection of RNA variant scans (doi:10.1093/nar/gkz1192).
